# Results taken from paper PMC6919601, “Identification of Plasmodium dipeptidyl aminopeptidase allosteric inhibitors by high throughput screening” (PLoS ONE, 2019).
# “And” between values parts separate entries of the source, which are not always exact repeats. Identical values can stand only once. The whole screen tested about 110,000 compounds, of which about 230 (0.21%) showed an effect of 50% or more. The list shows a part of the results.
# Target: DPAP1 (Plasmodium falciparum, UniProt Q8IIJ9)
# Assay: primary screen, percent inhibition; read by cleavage of a fluorogenic dipeptide substrate; higher = more effect of the substance
# Set-up: species or system P. falciparum D10 trophozoite lysates; single well
# 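Also: 30 min substrate incubation versus DMSO and 10 µM JCP410 controls.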
# Chain of DPAP1 (Q8IIJ9 whole entry, looked up): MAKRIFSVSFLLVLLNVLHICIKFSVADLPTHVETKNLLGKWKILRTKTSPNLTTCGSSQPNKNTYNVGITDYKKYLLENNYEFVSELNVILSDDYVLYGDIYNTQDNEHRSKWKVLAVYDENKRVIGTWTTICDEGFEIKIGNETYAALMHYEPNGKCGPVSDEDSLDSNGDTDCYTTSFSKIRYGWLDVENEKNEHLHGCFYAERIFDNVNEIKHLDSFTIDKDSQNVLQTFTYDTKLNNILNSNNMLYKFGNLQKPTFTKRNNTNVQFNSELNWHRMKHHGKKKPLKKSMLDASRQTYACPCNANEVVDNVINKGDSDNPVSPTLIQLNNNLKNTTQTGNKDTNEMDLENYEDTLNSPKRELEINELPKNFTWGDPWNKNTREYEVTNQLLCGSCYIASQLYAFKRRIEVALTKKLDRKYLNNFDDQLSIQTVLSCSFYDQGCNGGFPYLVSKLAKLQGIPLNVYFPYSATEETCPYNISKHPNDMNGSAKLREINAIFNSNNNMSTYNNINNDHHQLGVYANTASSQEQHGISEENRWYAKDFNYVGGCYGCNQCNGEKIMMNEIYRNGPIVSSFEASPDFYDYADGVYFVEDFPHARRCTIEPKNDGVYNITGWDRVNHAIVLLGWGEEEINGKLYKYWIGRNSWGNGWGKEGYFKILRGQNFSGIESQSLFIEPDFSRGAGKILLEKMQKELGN
row,SMILES,% Inhibition @ 10 uM
1,COCCN(CCOC)S(=O)(=O)c1ccc(/C(O)=C(\C#N)c2nc3ccccc3[nH]2)cc1,2.7%
2,CNC(=O)c1cc2c(C)nn(-c3ccccc3)c2s1,4.15%
3,N#CCNC(=O)[C@H](CC1CCCCC1)NC(=O)Nc1ccccc1,-0.214%
4,Fc1ccc(-c2nsc3c(N4CCOCC4)ncnc23)cc1,0.758%
5,Cc1cccc(C(=O)N2CCN(C(=O)c3cccc(C)c3)C(C)C2)c1 (stereo not drawn),-6.6%
6,Cc1ccccc1C(=O)Nc1ccc(F)cc1,3.53%
7,COc1cc(CN2CCN(c3ccc(Cl)cc3)CC2)cc(OC)c1,3%
8,CCCCNC(=O)CCc1c(C)nc2cc(-c3ccc(Cl)cc3)nn2c1C,-6.03%
9,Cc1cc(C)c2nc(O)cc(C(=O)O)c2c1,-1.33%
10,COc1ccccc1C(=O)N(Cc1ccccc1F)C1CCS(=O)(=O)C1 (stereo not drawn),-1.35%
11,COc1ccc(C(=O)Cn2c(N3CCN(C)CC3)nc3c2c(=O)n(C)c(=O)n3C)cc1,1.43%
12,COCCNC(=O)c1cnn(-c2ccc(C)cc2)c1C1CCN(C(=O)OC(C)(C)C)CC1,-5.8%
13,CCc1ccc(CNC(=O)CN2N=C(c3ccc(Cl)cc3)CCC2=O)cc1,0.514%
14,CC(=O)C1=C(O)C(=O)N(Cc2ccccc2)C1c1ccc(Br)cc1 (stereo not drawn),-2.67%
15,CC1=C(C(N)=O)C(c2ccccc2)NC(S)=N1 (stereo not drawn),-0.339%
16,COc1ccccc1/C=C1/SC(Nc2ccccc2C)=NC1=O,-2.34%
17,O=C1C(=Cc2c[nH]c3ccccc23)C(=O)c2ccccc21,6.33%
18,NC(=S)N/N=C/c1nc2ccccc2n1Cc1ccccc1,4.1%
19,COc1ccc(-c2cn3c(n2)sc2cc(C(=O)N(C)Cc4ccccc4)ccc23)cc1,14.7%
20,CO/C(O)=C1/C(C)=Nc2nc(O)nc(O)c2C1c1ccc(Br)cc1 (stereo not drawn),3.47%
21,Cc1ccc(S(=O)(=O)N2CCN(CCCOc3ccccc3Cl)CC2)cc1,-2.28%
22,COc1ccccc1C(=O)Nc1ccc2c(c1)OCO2,1.89%
23,O=C(Nc1ccc(Cl)cc1)N(Cc1ccccc1)Cc1ccccc1,2.47%
24,CC(=O)c1c(C(F)(F)F)nn(C(=O)c2ccccc2)c1C,-0.703%
25,CC1CCCN(S(=O)(=O)c2ccc3nc(O)cc(C(=O)NCCCN4CCCCC4C)c3c2)C1 (stereo not drawn),3.66%

row,SMILES,% Inhibition @ 10 uM
1,O=C(NCc1ccccn1)C1CCCN(c2nn3cc(-c4ccc(F)cc4)nc3s2)C1 (stereo not drawn),7.01%
2,Cc1ccc(-c2noc(CCC(=O)N3CCCC(C)C3)n2)cc1 (stereo not drawn),-6.58%
3,Cc1nn2c(-c3ccncc3)nnc2c2ccccc12,0.366%
4,CC1CCN(c2c(NCC3CCC(C(=O)NCCCc4ccccc4)CC3)c(=O)c2=O)CC1 (stereo not drawn),-6.04%
5,CC(C)(C)c1ccc(OCCCCN2CCCCC2)cc1,0.135%
6,CC(C)C[C@H](NC(=O)c1ccc(OC(F)(F)F)cc1)C(=O)NCC#N,0.174%
7,CC(=O)c1sc(N)c(C(=O)Nc2cccc(C)c2)c1C,4.56%
8,CCN1C(=O)c2cccc3c(S(=O)(=O)NC(CCSC)C(=O)O)ccc1c23 (stereo not drawn),-1.6%
9,COc1ccc(N(CC(=O)NC2CC3CCC2C3)S(=O)(=O)c2ccc(C)cc2)cc1OC (stereo not drawn),-0.46%
10,Fc1ccc(CN2CCN(c3ncccn3)CC2)cc1,-1.86%
11,CC(=O)OCC1OC2OC(C)(C)OC2C2OC(C)(C)OC12 (stereo not drawn),1%
12,COCCNC(=O)CCCn1c(SCc2ccccc2C#N)nc2c(sc3ccccc32)c1=O,1.66%
13,Cc1nc2ncnn2c(C)c1CCC(=O)NC(C)(C)C,2.93%
14,O=C(c1ccccc1)N(Cc1ccco1)Cc1ccco1,5.43%
15,Cc1ccc(OCc2ccccc2C(=O)Nc2nccs2)cc1,2.7%
16,O=C(Cn1cnc2c(nc3n2CCCCC3)c1=O)NCc1ccc(F)cc1,2.82%
17,CCOc1ccc(NCc2cc(Br)ccc2OC)cc1,-2.88% and 1.19%
18,COc1cc(C(=O)n2nc(N)c3c(C)cc(C)nc32)cc(OC)c1OC,-3.34%
19,COCCNC(=O)CN1CCCN(Cc2ccc(F)cc2Cl)C1=O,-6.4%
20,CCC(=O)N1CCN(c2ccc(NC(=O)c3ccc(Br)o3)cc2)CC1,-0.872%
21,CCOc1ccc(NC(=O)c2cccc(Cl)c2)cc1,-6.33%
22,CCN1C(=O)c2ccc(C(=O)Nc3cccc(C(=O)O)c3)cc2C1=O,4.22%
23,COc1cc(/C=C2\NC(=O)N(Cc3ccc(Cl)cc3)C2=O)ccc1OC(C)C,-3.06%
24,O=C(CC12CC3CC(CC(C3)C1)C2)N1CCCC1,-2.44%
25,COc1ccc(-c2noc(CSc3nnc(-c4ccncc4)n3-c3cccc(C)c3)n2)cc1,2.89%

row,SMILES,% Inhibition @ 10 uM
1,CC12CCC(C(/C=N/CC/N=C/C3=C(O)C4(C)CCC3C4(C)C)=C1O)C2(C)C,1.33%
2,O=C(C1=C(O)C(=O)N(CC2CCCO2)C1c1cccnc1)c1ccc2c(c1)OCCO2 (stereo not drawn),-9.12%
3,CS(=O)(=O)N(CC(=O)Nc1ccc2c(c1)OCO2)c1ccc(Cl)c(Cl)c1,-1.82%
4,O=C(c1ccc(COc2ccccc2Br)o1)N1N=C(C(F)F)CC1(O)C(F)F (stereo not drawn),3.72%
5,Cc1ccc(S(=O)(=O)N(Cc2ccccc2)Cc2ccccc2)cc1,-0.999%
6,CCOC(=O)c1cc(S(=O)(=O)NCC2CCN(Cc3cccc(C)c3)CC2)cn1C,3.92%
7,Cc1nc2sccn2c1-c1csc(Nc2ccc(N(C)C)cc2)n1,-0.711%
8,O=C1c2ccccc2C(=O)n2ccnc21,-10.1%
9,CCOc1ccccc1N1CCN(C(=O)CC)CC1,2.03%
10,N#CCNC(=O)[C@H](CC1CCCCC1)NC(=O)c1cccc([N+](=O)[O-])c1,1.35%
11,Nc1nc(/C=C/c2cccnc2)nc(-c2ccccc2O)n1,-0.834%
12,COc1ccc(C2C(C(C)=O)=C(C)N=c3s/c(=C/c4ccc(OC)cc4OC)c(=O)n32)cc1 (stereo not drawn),-0.305%
13,O=C(Nc1ccc2ccccc2c1)c1cccc(NC(=O)C(F)(F)F)c1,-1.64%
14,O=C(NCc1ccccc1)c1ccccc1Br,5.35%
15,Cc1ccc(S(N)(=O)=O)cc1NC(=O)COc1ccc(Cl)cc1C,-2.37%
16,Cc1ccccc1OCC(=O)Nc1ccc(S(=O)(=O)Nc2nccs2)cc1,5.25%
17,O=C(CN(c1ccc(F)cc1)S(=O)(=O)c1ccccc1)N1CCN(Cc2ccccc2)CC1,-6.44%
18,Cc1ccc(OCC(=O)Nc2cc(Cl)ccc2Cl)cc1,-1.05%
19,CCN(CC)CCN1C(=O)CCCc2sc3c(c21)CCCC3,-1.91%
20,CCOc1ccccc1C(=O)Nc1cccc(C(C)=O)c1,0.219%
21,Cc1ccc(/C=C/C2=NC(=C\c3cc(Br)cs3)/C(=O)O2)cc1,14.8%
22,COc1cc(OC)c(C2C(C#N)=C(N)OC3=C2C(=O)CCC3)cc1OC (stereo not drawn),-0.0372%
23,Cc1csc2nc(CNC(=O)c3cccc(C(F)(F)F)c3)cn12,2.57%
24,Cc1ccccc1S(=O)(=O)Cc1ccc(C(=O)NCCc2ccc(Cl)cc2)o1,2.14%
25,CC1=NN(C(=O)c2ccc(COc3cc(C)cc(C)c3)o2)C(O)(C(F)(F)F)C1 (stereo not drawn),-0.545%

row,SMILES,% Inhibition @ 10 uM
1,CC1(c2ccccc2)OC(=O)C2C3CCCCC3=C3CCCCC3C21 (stereo not drawn),-3.66%
2,COc1cccc(C=C2C(=O)N(C)C(=O)N(C)C2=O)c1OC,-0.771%
3,CC12CN3CCN(C1)CC(C)(C3)C2=NO,-2.15%
4,O=C(c1ccco1)N1CCN(c2csc3ccccc3c2=O)CC1,-1.51%
5,Cc1c(NC(=O)c2ccccc2)cc(S(=O)(=O)c2ccccc2)c(O)c1C,1.25%
6,CC(=O)Nc1ccc2nc(SCC(=O)N3CCCC3)sc2c1,6.27%
7,COc1ccccc1/C=C/CN1CCN(C)CC1,1.08%
8,Cn1c(N)c(C(=O)c2ccccc2)c(=O)n(C)c1=O,4.09%
9,COc1cc(/C=C/C(=O)c2c(O)cc(C)oc2=O)cc(OC)c1O,6.43%
10,Cc1ccc2nc(N(CCCN(C)C)C(=O)c3ccc(Cl)s3)sc2c1,4.91%
11,CC(CN(C)C)OC(=O)C1(c2ccccc2)CCCC1 (stereo not drawn),-7.01%
12,N#Cc1c(-c2ccccc2)cc(-c2ccccc2)nc1SCC(N)=O,4.67%
13,CCC(O)C#CC1(C)CCCC(C)(C)O1 (stereo not drawn),-5.41%
14,CCN(CC)C(=O)CSc1nc(C23CC4CC(CC(C4)C2)C3)ccc1C#N,-2.79%
15,Cc1cccc(C(=O)Nc2ccccc2Br)c1,-0.0404%
16,CC(C)C[C@H](NC(=O)c1ccc(-c2csc(N=C(N)N)n2)cc1)C(=O)N[C@@H](Cc1cccnc1)C(=O)O,-5.64%
17,CCN(CC)CCOC(=O)c1cccc2c1-c1ccccc1C2O (stereo not drawn),1.84%
18,CC[C@H](NC(=O)[C@H](CS(=O)(=O)Cc1ccccc1)NC(=O)N1CCOCC1)C(=O)c1ccccn1,-8.82%
19,CCOC(=O)c1nn(-c2ccccc2)c(C(=O)OCC)c1NC(=O)C1CCCCC1,-7.23%
20,Cc1nnc(N2C(=N)S/C(=C\c3ccco3)C2=O)s1,-3.74%
21,COc1ccc(C2C(C#N)=C(N)Oc3[nH]nc(-c4cccs4)c32)cc1Br (stereo not drawn),-4.6%
22,COc1cc(C2=NOC(C(=O)Nc3cc(C)nn3-c3ccccc3)C2)cc(OC)c1OC (stereo not drawn),-0.431%
23,CCOC(=O)c1c(C)c(C(=O)N2CCCCCC2)c(C)n1C,-1.66%
24,CCOc1ccc(C2C(C#N)=C(N)Oc3c2c(C)nn3-c2ccc(C)cc2)cc1 (stereo not drawn),-4.49%
